T1: UNK ZnF1-3 (human, UniProt Q9C0B0 31-174)
T1 sequence: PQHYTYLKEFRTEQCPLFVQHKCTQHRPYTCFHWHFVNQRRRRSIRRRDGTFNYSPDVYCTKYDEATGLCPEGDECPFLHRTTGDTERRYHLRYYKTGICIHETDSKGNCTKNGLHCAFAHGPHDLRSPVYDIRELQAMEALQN

B1: chr3:179287964:179287965:+_ENSG00000136518_ENST00000429709|hu_hu|hu_hu_hu_mus_True|1_48 (ssRNA)
RNA: GGGAGUUCUACAGUCCGACGAUCCUUGAGUGGUGAGAUGGCCUCCAUGUUCUCCCUGGGCACGCGGAGGGCAUUGGUGUCUAUGUAGUAGGUGGGACCGCCCUGCUUGCCUUUGUCACCAUCAAUCUCCAUCAUUGUGCUUCCCAACAGAGGAUUGAGCAUCA
B2: chr4:76721835:76721836:+_ENSG00000138768_ENST00000264904|hu_mus|hu_hu_hu_mus_True|1_78 (ssRNA)
RNA: GGGAGUUCUACAGUCCGACGAUCGUUUGGCUGGGGUUUCUGAGACGCUCUGGAAUAAACUCAUGUUUUGCUAAUAAAUCCUAGUUUCUCUAUGAAAUUCUCUUUGCCAAUCCUCUUCUCUAUUAGUUGCUUUAGUUCUCUUUCCAACAGAGGAUUGAGCAUCA
B3: chr2:153583694:153583695:+_ENSMUSG00000027479_ENSMUST00000028981|perfect_dup|FALSE|FALSE (ssRNA)
RNA: GGGAGUUCUACAGUCCGACGAUCAAAAAACUUCUUGAACCAUUGAACAAAUUCAAAAUUGUCCUGAAAUUUUCCUUUUACUAAUUUAUCCACAGGAAUUAUUUUGUCAACGCCCAUCCUCUUGAAGCCUGCUUGUAGUAUUUUCAACAGAGGAUUGAGCAUCA
B4: 97026774_97028877_2254_3pUTR_ENSMUSG00000001440_ENSMUST00000001479|mouse|control|control (ssRNA)
RNA: GGGAGUUCUACAGUCCGACGAUCAAGCCAACAGCUGCCAAACAUACCUGGUACUCAGCAUAAUUUUUCAGUCCAAUGCCCAGGAAUGGUUUAAAGGCCUCCAUGUACUUGAGGAAUUCACCACCCAACACUUCCACCAGUGUGCAACAGAGGAUUGAGCAUCA
B5: chr17:29398750:29398751:-_ENSMUSG00000024007_ENSMUST00000024802|mus_hu|FALSE|FALSE (ssRNA)
RNA: GGGAGUUCUACAGUCCGACGAUCGUCACCUCCUUGGAUCAUGAAGUCUUUGAUAAUUCUGUGGAAUUUUGUGCCAUUGUAGUAACCUCGACGAGCCAACUCAGCAAAGUUCUUACAGGUCUUUGGAGCAUGCUUCCAGUACAGCAACAGAGGAUUGAGCAUCA
B6: chr8:104447970:104447971:+_ENSG00000164934_ENST00000297579|hu_hu|motif|central (ssRNA)
RNA: GGGAGUUCUACAGUCCGACGAUCAUAUACCUCCCUGCUUCGACUUUUGUCUACAGGAAAGAUUCGAAUAGAUUUAUCGAAACGGGCAGACACAAACUCCUUCCCAGUGGGAGAGUAAUCCACAUCAAGCACUGCAGAUACAUGCAACAGAGGAUUGAGCAUCA
B7: chr1:127303955:127303956:-_ENSMUSG00000026341_ENSMUST00000027579|perfect_dup|motif|central (ssRNA)
RNA: GGGAGUUCUACAGUCCGACGAUCUAUUACUGUACCCGUCAGCGUCCGCUCUCCUACUUGUCUUGAGGUCCAGGAUGCAGCGGAGGCAAGAACAGCCUGCACAGCAAUGUACAAGCCUGGAACAUUGAAGGAUUCAAACAUUAUCAACAGAGGAUUGAGCAUCA
B8: chr14:45754706:45754707:-_ENSMUSG00000021830_ENSMUST00000139526|mus_hu|FALSE|FALSE (ssRNA)
RNA: GGGAGUUCUACAGUCCGACGAUCCAGAACCAGGAAAUUCUGGAAACCUAGUCUGCCACAGGUUACUUUUAACACAAGGUUACUCAGCCUUGGCACGACUACCAUUUCGGGCAGGAUAAUUCUUUGUUGUGGGGCGCUGUCCAACAACAGAGGAUUGAGCAUCA
B9: chr3:100845581:100845582:-_ENSMUSG00000027864_ENSMUST00000102694|mus_hu|FALSE|FALSE (ssRNA)
RNA: GGGAGUUCUACAGUCCGACGAUCCCUGGUGGGGUAUACUUGUUGCCCGUCUUCCCACCACAGGCCCGGGCCAAGGAAAGGCUACUGUCAAUGCAGAAUCUAAUGUUUCUACCAUGUGCAUGGUCCCCUUGGUGGGGAAAACUCCAACAGAGGAUUGAGCAUCA
B10: chr9:49312907:49312908:-_ENSMUSG00000039542_ENSMUST00000166811|mus_mus|motif|central (ssRNA)
RNA: GGGAGUUCUACAGUCCGACGAUCAGCUGGCAUUUGGCAUGCUUCCUAAGAAACAGGAGUCCCCGUGGGAACUGAACUCAGCGGGCCAGAGUGCCACACUCCGCAUAUGGAACAAACACAAACUGAACGGAAAGUAUAACUUAUCAACAGAGGAUUGAGCAUCA
B11: chr4:148551591:148551592:-_ENSMUSG00000063077_ENSMUST00000060537|mus_hu|mus_mus_mus_hu_False|28_58 (ssRNA)
RNA: GGGAGUUCUACAGUCCGACGAUCACCUGACAAAAUUAAAUAUCCCUGUAAAUUAGACAAUAAGCAGCAGGCAACAAAGUCUAUGCUUUGGAAUAUGUGCCAGGAAAAAUCAUGUUUUUUUUAGAUCUCAAGAGACAGUUCACACAACAGAGGAUUGAGCAUCA
B12: chr8:13019134:13019135:+_ENSMUSG00000031442_ENSMUST00000123811|mus_hu|FALSE|FALSE (ssRNA)
RNA: GGGAGUUCUACAGUCCGACGAUCGGGGGCGGUGAGGUGCCCCUUCCUCGGGGCGUCCGGGGGCCGCGCCCUCCCCACGCCACCGCAGCCCCAGACAGCGCGCGGGUCUCCGGCGCCGAGGCCGCGCUACCCCUGCAGGUCGGACAACAGAGGAUUGAGCAUCA
B13: chr17:60770872:60770873:+_ENSG00000011028_ENST00000303375|hu_hu|hu_hu_hu_mus_True|58_98 (ssRNA)
RNA: GGGAGUUCUACAGUCCGACGAUCUCUUUAAAAAAAAUUCCUUUUUUACAAACAAUAAUAGCACAUUUCGAGAAUCAUCAACUACAGUAGAGGGUCCGCUUUGAGUUUUUGUUCACAUCGUCCUGCACUGGGACACGGGGACUGCAACAGAGGAUUGAGCAUCA
B14: 152481611_152481731_4040_3pUTR_ENSMUSG00000039037_ENSMUST00000044278|mouse|control|control (ssRNA)
RNA: GGGAGUUCUACAGUCCGACGAUCCUGGGAGGAGGCUGAUGAUAGCACUGGGGAGAGACGAGAAGGGAACAUACCAAGCCAAGCGAGCAGGGCUCCAAAUACCCCGGAACCACUGGGGUCUGUAAGCAGGGUUGUGUGUCCUGUCAACAGAGGAUUGAGCAUCA
B15: chr10:28884852:28884853:+_ENSG00000095787_ENST00000354911|hu_hu|FALSE|FALSE (ssRNA)
RNA: GGGAGUUCUACAGUCCGACGAUCAGAUGCUCCAUUAGCAUCAAAUGAUUUCUUUGGCUGGUGAUCAGACUGUAGCGUAAAUGGACUAGAAGGAACAGUGCUUGGGGUAGCAGUUGGAUGAACCACUGGUUUGAUGGGGUGCUGCAACAGAGGAUUGAGCAUCA
B16: chr17:62496344:62496345:-_ENSG00000108654_ENST00000581693|hu_mus|FALSE|FALSE (ssRNA)
RNA: GGGAGUUCUACAGUCCGACGAUCCCCAAAAUCUCUCUUAAGCAGAUUAGAGUAGCCUCUGUCAUAGUUUUCCCUGUCUCUAAAGGUAUUAAAUCCACCCCUUUUGCCUGCAGAGUAUCUGUCACGACGAUCGUCCUUCAUGCCCAACAGAGGAUUGAGCAUCA
B17: chr7:141438946:141438947:+_ENSG00000106028_ENST00000265304|hu_mus|hu_hu_hu_mus_True|98_98 (ssRNA)
RNA: GGGAGUUCUACAGUCCGACGAUCGACGAAAUACCUGACAGGUCUUCCUUCGAAACAUGGCUUCUGUUUUUCUUACAACCUAAUCUUUAGGCUUUUCCUAAAGGAAAGAAAGAAAAGAGAAAAAUGAUAAAUCAAGAAACUACACAACAGAGGAUUGAGCAUCA
B18: chr2:90620368:90620369:+_ENSMUSG00000008200_ENSMUST00000013759|mus_hu|FALSE|FALSE (ssRNA)
RNA: GGGAGUUCUACAGUCCGACGAUCUGUCUUGUUGUAUUUACUGCCACAUACUUGAGGGGAAAUUCUCAAAAUCAAGGAUAUGAACACCUGCUGCUGCCUGUAUGCCACCUAGUGUGCGAAACGACCGAGCUACCAGUUCUAGAACAACAGAGGAUUGAGCAUCA
B19: chr2:48034816:48034817:-_ENSG00000138081_ENST00000403359|hu_mus|motif|central (ssRNA)
RNA: GGGAGUUCUACAGUCCGACGAUCUCAUAUUCUCAAUCUGAAUACAUGUUAAACAAAAAAAAAAAAAUCAAUGCAGAAGUGCGGGCUCACAUUUUUACCAUAUUACAAAAAGCAAUUGGUACCCAUGUCCAUAAAGGCAGCAACCAACAGAGGAUUGAGCAUCA
B20: chr2:157386987:157386988:+_ENSMUSG00000067786_ENSMUST00000109526|perfect_dup|FALSE|FALSE (ssRNA)
RNA: GGGAGUUCUACAGUCCGACGAUCGGAGUACCUGAACACCUCACUUCUCGCAAUGGGCUGUGUCCCUGGAGGAUUUCGAAAAGCGAAUCCUACCCAGUAAAUGCAGCAUUCCAGGAACACCUGCAGCAGCACGCGGAAGAUGUACAACAGAGGAUUGAGCAUCA
B21: chr14:88400820:88400821:-_ENSG00000054983_ENST00000261304|hu_hu|FALSE|FALSE (ssRNA)
RNA: GGGAGUUCUACAGUCCGACGAUCGAGCUACCUCAGUGUUAGCAGCAAGGCUUCGAGGUCUGUACUACUCAAACCACUCCUAAGGGUAUGGCCAAUGCACAGUUUGAAUGUUAGGGAACACACCAGGUAAUGUUAAAGAUUCACCAACAGAGGAUUGAGCAUCA
B22: chr19:16212804:16212805:+_ENSG00000167460_ENST00000300933|hu_mus|hu_hu_hu_mus_False|58_108 (ssRNA)
RNA: GGGAGUUCUACAGUCCGACGAUCAACAAAUAUGCAAUGAAGGAAAGAUGUAACAUGGAACAGCAUUAAAGCUCAGUAUUACUAUAUAUGGGCAACAAUGAUCACCCCAGCAUUCUCGCUUGGAAUGCUUAAAGACAAUCUGUUCAACAGAGGAUUGAGCAUCA

The list shows a part of the results.

In this assay the target is T1, UNK ZnF1-3. Briefly: nsRBNS (natural sequence RNA bind-n-seq); RBNS binding buffer (assumed for nsRBNS): 25 mM Tris pH 7.5, 150 mM KCl, 3 mM MgCl2, 0.01% Triton X-100, 500 ug/ml BSA, 20 U/ml SUPERase-In, 4 C; UNK is unkempt and MSI1 is Musashi-1; names of the RNAs are library labels; protein concentration not given here; high values mean tight binding.
For B1, the binding signal worked out at 0.66 enrichment R. With B2 the figure was 0.485 enrichment R; with B3, 0.847 enrichment R; with B4, 1.05 enrichment R. With B5 the figure was 0.947 enrichment R; with B6, 0.63 enrichment R; with B7, 0.898 enrichment R. With B8 the figure was 0.589 enrichment R; with B9, 1.01 enrichment R; with B10, 1.21 enrichment R. Take B11: the binding signal was 1.07 enrichment R. In the case of B12, the binding signal came out at 0 enrichment R. With B13 the figure was 1.3 enrichment R. With B14 the figure was 1.42 enrichment R; with B15, 1.19 enrichment R; with B16, 1.13 enrichment R. B17 displayed a binding signal of 0.548 enrichment R. With B18 the figure was 1.73 enrichment R; with B19, 2 enrichment R; with B20, 0.81 enrichment R. With B21 the figure was 1.11 enrichment R; with B22, 0.852 enrichment R.

For the origin of these results see PMC12136788.
